The values that follow come from patent publication US8378115B2, “Monomethine dyes” (Thermo Fisher Scientific (Milwaukee) LLC, priority 2007, dated 2013).

The subject of this test is 94 base pair (bp) product from the Human GAPDH gene. Put plainly: Real-time PCR with dye, 94 bp GAPDH product. As for the experimental part: Real-time PCR was performed in 25 μL volumes on a Stratagene® MX3005p (Stratagene, La Jolla Calif.). The following PCR protocol was used to amplify a 94 base pair (bp) product from the Human GAPDH gene; 95° C.×10 min, followed by 45 cycles of 95° C.×20 sec, 60° C.×20 sec, and 72° C.×22 sec (data collected at 72° C. step). Each amplification reaction (25 μL) included 10 ng of Human Genomic DNA template (Sigma), 200 μM of each dNTP, 3 mM MgCl2, 50 mM KCL, 10 μm EDTA, 10 mM Tris, 5% DMSO, 70 nM of both forward (5′ ACAGTCAGCCGCATCTTCTT) and reverse (5′ ACGACCAAATCCGTTGACTC) primers, and 0.625 units of Taq DNA polymerase (Thermo Scientific). The dyes were included at varying concentrations. ABsolute™ QPCR SYBR® Green master mix (Thermo Scientific) was used for amplification when SYBR® Green I was required as the indicator. No template control (NTC) reactions without DNA were also included. The fluorescent signal was monitored in the following five channels (nm excitation/nm emission): 492/516, 535/555, 545/568, 585/610, and 635/665. Presence of amplicon was determined using post-amplification melt-curve analysis (95° C.×60 sec×1 cycle, 60° C.×30 sec×1 cycle followed by 95° C.×30 sec (with continuous data collection during ramping)) and agarose gel electrophoresis. […]
(In qPCR the cycle at which signal appears reflects the starting amount.)

For `CCN(CC)c1ccc2c(/C=C3\Sc4ccccc4N3C)cc(N(C)CCCN(C)C)[o+]c2c1` [Dye V02-07027], the “dye amounts that inhibited PCR” value (25 μL reaction, 492/516 nm filter set) is listed as “greater than 80 ng”.

On to `CCN(CCCN(C)C)c1ccc2c(/C=C3\Sc4ccccc4N3CC)cc(C(C)(C)C)[o+]c2c1` [Dye V02-07015], for which, under “80, 120, 160 ng dye in 25 μL, 535/555 nm filter set”, the “inhibition of PCR with increasing amounts of dye” value was “No inhibition of PCR was observed”.
